Laboratory results taken from PubChem BioAssay AID1458 (National Center for Advancing Translational Sciences (NCATS), 2008).
The whole screen tested about 210,000 compounds, of which about 5,900 (2.8%) were called active. Inconclusive means that the source gave no clear call. Such entries were picked first, then a sample of the others. The call rests on the fitted dose curve; in most records, active means well fitted activation curve with a large enough effect; inconclusive means small, poorly fitted or top-dose-only effect; inactive means no such curve, though single readings can be large or run the other way. Potencies beside an inconclusive call are fits to weak or partial responses and may not hold up.

test: qHTS Assay for Enhancers of SMN2 Splice Variant Expression; conditions: HEK293 SMN2-luciferase splicing reporter, luminescence, 30-36 h; activity change, positive = activation: at 46.1 µM (top of the series); further: nearly all actives have a fitted effect of over 55% in size; on activity change, positive = activation: % of control where 0% means no effect
Procedure, shortened: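 HEK293 cells carry an SMN2 minigene-luciferase reporter in which exon 7 inclusion puts luciferase in frame. Cells were seeded at 2000 cells/well, attached for 10-12 hours, then exposed to compounds for 30-36 hours at 37C before ONE-Glo luminescence.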
Potency means the concentration at half of the fitted maximal effect; tags describe the fitted curve by direction and shape.

SMILES	Potency	activity change, positive = activation
CC(=O)c1ccc(NC(=S)NCc2ccc(Cl)cc2Cl)cc1	inconclusive: 28.2 µM [activator, single point]	–
COc1ccc(OC)c(N=C2C(=O)Nc3ccccc32)c1	inconclusive: 28.2 µM [activator, single point]	–
Nc1ccc(O)c([N+](=O)[O-])c1	inactive	–
CCOc1ccc(NC(=O)Cn2c(=O)n(CCCS(=O)(=O)C3CCCCC3)c(=O)c3ccccc32)cc1	inactive	–
COc1ccc2c(c1)CC/C2=N\NC(=O)c1ccccc1	active: 15.8 µM	–
CC1CC1C(=O)Nc1ccc(-c2ccccc2)cc1 (stereo not drawn)	active: 12.6 µM	–
CC(C)CSc1nc2ccccc2[nH]1	inconclusive: 35.5 µM [activator, single point]	–
Cc1cccc(Nc2nnc(SCC3CCCCO3)s2)c1C (stereo not drawn)	inconclusive: 35.5 µM [activator, single point]	–
CCCNC(=O)CN(C)S(=O)(=O)c1c(C)cc(C)cc1C	inconclusive: 0.178 µM [activator, full curve, poor fit]	–
COc1cc(/C=N/NC(=O)CSc2n[nH]c(=O)[nH]c2=O)cc(OC)c1O	inactive	–
COc1ccc(C(=O)Nc2ccc(N3CCOCC3)cc2)cc1S(=O)(=O)NC1CCCC1	inactive	–
O=C(COC(=O)c1ccc(O)cc1)NCc1ccc2c(c1)OCO2	inconclusive: 22.4 µM [activator, partial curve, poor fit]	–
CCN(CC)S(=O)(=O)c1cccc(NC(=O)C2SC(=Nc3ccc(C)cc3C)C(C(=O)NCC3CCCO3)=C2N)c1 (stereo not drawn)	inconclusive: 7.08 µM [activator, partial curve]	–
O=C1NC(=Nc2ccccc2)S/C1=C\C=C\c1ccco1	active: 14.1 µM	–
Cc1ccc(C(=O)N2CCN(c3cccc(Cl)c3)CC2)cc1C	inconclusive: 7.08 µM [activator, full curve]	–
COc1cc(-c2n[nH]c(=S)n2-c2cccc(C(F)(F)F)c2)cc(OC)c1OC	inconclusive: 11.2 µM [activator, partial curve]	–
COCCOC(=O)c1c(C)oc2ccc(OCc3cc(C(=O)OC)oc3C)cc12	inconclusive: 31.6 µM [activator, single point]	–
Fc1ccc(-n2c(-c3ccc4ccccc4n3)n[nH]c2=S)cc1Cl	inactive	–
N/C(=N\OC(=O)CSc1ccccc1)c1ccc([N+](=O)[O-])cc1	inconclusive: 15.8 µM [activator, single point]	–
CCc1nc(C)c(C#N)c2cc(OC)c(OC)cc12	inconclusive: 8.91 µM [activator, partial curve]	–
Nc1[nH]c(N=NC(=O)c2ccc(Cl)cc2)c2ccccc12	inconclusive: 10 µM [activator, single point]	–
COc1ccc(OCCn2cncn2)cc1	inconclusive: 3.98 µM [activator, full curve, poor fit]	–
CC1(C)CC(NC(=O)C(F)(F)F)CC(C)(C)N1OC(=O)c1ccco1	inconclusive: 10 µM [activator, partial curve]	–
COC(=O)c1nc2ccc(C)cn2c1F	inconclusive: 12.6 µM [activator, partial curve]	–
O=C(N/N=C/c1ccco1)c1ccn[nH]1	inactive	–

SMILES	Potency	activity change, positive = activation
O=C(NCCC1=CCCCC1)C(=O)c1c[nH]c2ccccc12	inconclusive: 10 µM [activator, partial curve, poor fit]	–
Cc1ccccc1N1C(=O)c2cc(S(N)(=O)=O)c(Cl)cc2N[C@H]1C	inactive	–
Clc1ccc2oc(-c3ccccc3)nc2c1	inconclusive: 14.1 µM [activator, single point]	–
O=C(Nc1ccc(N2CCOCC2)c(Cl)c1)c1cccc(F)c1	active: 10 µM	–
C/C(CC(=O)Nc1ccc(F)cc1)=N\NC(=O)Cc1csc(N)n1	inconclusive: 4.47 µM [activator, partial curve, poor fit]	–
CCN(CC)S(=O)(=O)c1cccc(NC(=O)c2ccc(SC)cc2OC)c1	inactive	–
COc1ccc(NC(=O)c2[nH]c(C)c(C(C)=O)c2C)cc1S(=O)(=O)N1CCOCC1	inconclusive: 20 µM [activator, partial curve, poor fit]	–
COc1ccc(CC(=O)Nn2c(-c3ccccc3)nc3ccccc3c2=O)cc1	inactive	–
O=C(O)CC(NC(=O)COc1ccc(Cl)cc1Cl)C(=O)O (stereo not drawn)	inconclusive: 35.5 µM [activator, partial curve, poor fit]	–
N/C(=C/C(=O)c1ccccc1O)C(F)(F)F	inactive	–
NC1C(O)OC(CO)[C@@H](O)[C@@H]1O[C@H]1O[C@@H](C(=O)O)C(O)C(O)C1O (stereo partly drawn)	inactive	–
O=C(Nc1ccc2c(c1)OCO2)c1cc(C2CC2)on1	active: 11.2 µM	–
Cc1cccc(Nc2nnc(SCC(=O)Nc3ccc(C(=O)O)cc3)s2)c1	inactive	–
Fc1ccc(CNC(=S)Nc2ccc(Cl)cc2)cc1	inconclusive: 12.6 µM [activator, single point]	–
O=C(/C=C/Nc1cccc([N+](=O)[O-])c1)c1cccs1	active: 15.8 µM	–
Nc1ccc2nc(-c3ccccc3)[nH]c2c1	active: 17.8 µM	–
CC(C)COc1ccc(C(=O)Nc2ccc(SC(F)F)cc2)cc1	inconclusive: 35.5 µM [activator, single point]	–
CC1(C)CC(=O)c2c(oc3c(Cl)cc(NS(=O)(=O)c4ccc(Br)cc4)cc23)C1	inactive	–
CN1C(=O)CC(N2CCN(CC(=O)N3CCCC3)CC2)C1=O (stereo not drawn)	inconclusive: 31.6 µM [activator, single point]	–
Oc1ccc(-c2csc(Nc3ncccn3)n2)cc1	active: 25.1 µM	–
CCCCN1CCc2c([nH]c3ccccc23)C1=O	inconclusive: 35.5 µM [activator, single point]	–
S=C(NCCc1ccccc1)N1CCc2ccccc2C1	inconclusive: 20 µM [activator, single point]	–
CCOC(=O)c1cnc2ccc(C)cc2c1Nc1ccc(N(CC)CC)cc1	inactive	–
Cc1ccc(Cl)cc1NC(=O)c1ccc(NC(=O)CCC(=O)O)cc1	inconclusive: 1.12 µM [activator, full curve, poor fit]	–
CC(NC(=O)CC12CC3CC(CC(C3)C1)C2)C(=O)O (stereo not drawn)	inconclusive: 0.794 µM [activator, full curve, poor fit]	–

SMILES	Potency	activity change, positive = activation
CC(=O)c1cc(NC(=O)c2ccc(C)cc2)c(=O)oc1/C=C/N(C)C	inconclusive: 11.2 µM [activator, partial curve, poor fit]	–
CC(=O)Nc1ccc(S(=O)(=O)Oc2ccc3c(c2)C(C)=CC(C)(C)N3)cc1	inconclusive: 1.26 µM [activator, single point]	–
O=C(OCc1ccccc1)c1cccc(-c2nnc(-c3ccccc3)o2)c1	inconclusive: 35.5 µM [activator, single point]	–
CCOC(=O)c1c(C)[nH]c(C(=O)OCC(=O)Nc2cc(C)ccc2OC)c1C	inconclusive: 12.6 µM [activator, partial curve, poor fit]	–
O=C(Nc1ccc2oc(-c3ccc4ccccc4c3)nc2c1)c1ccc(Cl)c(Cl)c1	inactive	–
COC(=O)CSC1=C(C#N)C(=O)NC(c2ccccc2)S1 (stereo not drawn)	inconclusive: 17.8 µM [activator, single point]	–
Cc1ccc(Cn2ccc(C3CC3)n2)cc1	inconclusive: 5.01 µM [activator, partial curve, poor fit]	–
CCn1cnc2cc(NCc3ccc(C)cc3)ccc21	active: 12.6 µM	–
O=C(N/N=C\c1ccco1)Nc1cccc(Cl)c1	active: 10 µM	–
O=c1c2c3c(sc2ncn1/N=C/c1ccco1)CCCC3	inconclusive: 0.158 µM [activator, full curve]	–
Cc1ccc(S(=O)(=O)NCCCNC(=O)N2CCOCC2)cc1	inconclusive: 10 µM [activator, partial curve, poor fit]	–
O=C(N/N=C/C=C\c1ccccc1[N+](=O)[O-])c1ccccn1	inconclusive: 12.6 µM [activator, partial curve]	–
N/N=C1/CC(=O)NC(=O)N1	–	inactive: -8.69% [at 9.22 µM]
CC(C)C1=NN2C(=N)CC(=O)N=C2S1	inconclusive: 2.82 µM [activator, partial curve, poor fit]	–
CC(=O)OCC(=O)[C@@]12OC(C)(C)OC1CC1C3CC(F)C4=CC(=O)C=C[C@@]4(C)[C@@]3(F)C(O)C[C@]12C (stereo partly drawn)	inactive	–
O=C1CCCc2c1cc(C(=O)Nc1ccc(Br)cn1)c(=O)n2-c1ccccc1	inconclusive: 1 µM [activator, partial curve, poor fit]	–
O=C(NCCCCc1ccccc1)C12CN(Cc3ccccc3)CC1C(c1ccc([N+](=O)[O-])cc1)=NO2 (stereo not drawn)	inactive	–
OCCSc1nnc(Nc2ccccc2)s1	inconclusive: 0.0316 µM [activator, full curve]	–
CCCC(=O)Nc1nnc(-c2ccco2)s1	inconclusive: 22.4 µM [activator, single point]	–
Cc1ccc(/C=C(\C#N)C(=O)Nc2ccc(Br)cc2)o1	active: 3.16 µM	–
COc1ccc(NC(=S)Nc2ccc(S(=O)(=O)N3CCOCC3)cc2)c(OC)c1	inactive	–
CNC(=S)N/N=C/c1cn(CCOc2ccc(OC)cc2)c2ccccc12	inconclusive: 28.2 µM [activator, single point]	–
CCCSc1ncc(Cl)c(C(=O)Nc2ccc(S(=O)(=O)N3CCC(C)CC3)cc2)n1	inconclusive: 6.31 µM [activator, single point]	–
